Laboratory results from the supplement of paper PMC11417369.
± gives the standard deviation of the averaged measurements. Some of the results follow.

tested on: PfAP2-EXP AP2 domain (GST-tagged); experiment: gcPBM binding intensity (ln(normalized median fluorescence intensity)); higher = stronger DNA binding
Method in brief: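 GST-tagged P. falciparum DNA-binding domains, expressed in E. coli (about 25 μg on average), were applied for 1 h to an Agilent 4 × 180k array of primer-extended double-stranded 36-bp intergenic genomic probes plus negative controls. The binding buffer was 1× PBS with 1% milk, 0.2 mg/ml BSA, 0.5% salmon testes DNA and 0.03% Triton X-100. Bound protein was detected with Alexa488 anti-GST antibody and scanned at 488 nm. Binding intensity is the highest Masliner-normalised natural-log median intensity across replicate spots of either probe orientation.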

Row | Sequence | gcPBM binding intensity (ln)
1 | AACCAATATGAGTATACACACATAAATATAAATATA [CACACA_site5968] | 8.46 ± 0.42
2 | AAAAAAAAAAAAGATACACACAAAAATGGATATATA [CACACA_site7069] | 8.41 ± 0.5
3 | TCTTTAAATCGAGTGTTAAATAATATAATATAAAAA [CACACA_negctrl_site1507] | 8.23 ± 0.35
4 | AAAAATGAGAAACACACACACATATATATATATATA [CACACA_site2228] | 10.1 ± 0.33
5 | TAAGAATAATGACATAGTACAATTTAATAGATCTAA [XGTACX_site3670] | 8.3 ± 0.61
6 | AAGTTTATTTGTTGCACACATATAAGTAGAGAAAAT [CACACA_site3027] | 8.81 ± 0.35
7 | TTTTCAAAATAATATTATATCAAATGCTAAAAAGAA [TGCATGCA_negctrl_site588] | 8.56 ± 0.37
8 | TTACGTTATATACATACACACCCACGCACAAAAAAA [CACACA_site6537] | 9.02 ± 0.69
9 | TACAGATATTATTGCACACATATAAAATACCCCCAA [CACACA_site6014] | 9.53 ± 0.33
10 | ATTAAATACTTCGATTGTACAATTTTTTTTTTTTTT [XGTACX_site832] | 8.59 ± 0.59
11 | CATATTTTTAAATACACACACATAAAAAAAAAAAAA [CACACA_site1095] | 8.54 ± 0.46
12 | TTTTTTTTAAAAAACACACACCTAAACAAGATATTT [CACACA_site6541] | 8.55 ± 0.51
13 | AAAAATATAAACTGCACACACACAAAAAAAGAAAAA [CACACA_site648] | 8.64 ± 0.57
14 | AAATAAAAAAGTAGTACACACTTCACGATATTTTTT [CACACA_site6015] | 8.54 ± 0.35
15 | TTATTATAATCATTAGTGCATATATTATTTTTATAT | 8.63 ± 0.092
16 | TATATACATATATGTACACACATTACAGATGTACAT [CACACA_site966] | 8.93 ± 0.36
17 | AATCTAATATAATGCACACATAAAAAAAAAATCAAA [CACACA_site2714] | 8.56 ± 0.23
18 | TATATTTACAATAAAACGTTATTTTTTGTTATTTTC [CACACA_negctrl_site612] | 8.54 ± 0.38
19 | GAAAAAAAAAAAAAAAAAAAAAGGAAAAAAGTGAAA [CACACA_negctrl_site996] | 8.41 ± 0.66
20 | ACGTTTACGTTATTATGTACGTAATATATCATACCT [XGTACX_site5006] | 8.46 ± 0.4
21 | GAATAAATAGACGAGTGTACTTTTTTTTAAAAAAAA [XGTACX_site7880] | 8.78 ± 0.61
22 | ATAAAACAATAAAATTGTACATAAATTGATTATACT [XGTACX_site6723] | 8.36 ± 0.45

Row | Sequence | gcPBM binding intensity (ln)
23 | AATTAAATTAGAAGCACACACATATTTATATTTATA [CACACA_site7552] | 8.34 ± 0.45
24 | GTATATATTTAAACACGTACACAAAACCCAAAAAAT [XGTACX_site8110] | 9.19 ± 0.53
25 | ATACACTCACTCACACGTACAGACAACGGACGATCA [XGTACX_site1097] | 8.88 ± 0.63
26 | AAATATTTTTTTTCTACACACATACAAATATATATT [CACACA_site5325] | 8.76 ± 0.73
27 | AATAATAACACCGTGGATACACAATAACAAAGAACT [CACACA_negctrl_site532] | 9.11 ± 0.52
28 | TTTCATTTAGCTTTTACACACTATATATCATTGATT [CACACA_site6158] | 8.88 ± 0.45
29 | TGAGAGTTCTCATATGCACACAAAAAACTTTCATTT [CACACA_site7898] | 8.41 ± 0.37
30 | TACATATACATATACACACACACACCCAAATAAATA [CACACA_site1344] | 8.86 ± 0.51
31 | TTGCAACTCTTCAATCGTACACATTATTTATTATAT [XGTACX_site1377] | 8.87 ± 0.34
32 | TATGTAAAAAATTTAACACACACATATATATATATA [CACACA_site8829] | 10.2 ± 0.38
33 | ATCATAATCATAAAAAGTACAAACGATAAAATAAAT [XGTACX_site3832] | 9.01 ± 0.52
34 | TTACTTAAGAAACACACACACAAAAAAAAAAAAAAA [CACACA_site946] | 8.2 ± 0.61
35 | TTTTTTTCTGTGAGTGCATGTAATAAAATAAATTTA [TGCATGCA_site276] | 8.84 ± 0.071
36 | TTCAAAAATATATAATGTACACAAATATAAAAGAAT [XGTACX_site1944] | 9.03 ± 0.29
37 | TGTTATTTTAAAAAAAAAATTATTAACTTAAAAAAA [CACACA_negctrl_site1641] | 7.89 ± 0.44
38 | TATTTATAATAGTGTACACAATTATAAACTGAATAT [CACACA_site6041] | 8.76 ± 0.19
39 | TATTATTGTCTTTCAAAAAAAAAAAAAAAAAAAAAA [CACACA_negctrl_site1242] | 7.83 ± 0.27
40 | CAACATATATTAATATGTACATATATATAGATATAT [XGTACX_site4107] | 8.34 ± 0.23
41 | TATTATTCATAATTTATCTTTTAAATTAAATCACAA [GTGCAC_negctrl_site288] | 7.97 ± 0.45
42 | TTATTCACTTCTTTTTAAAAAAAAAAAAAAAAAAAA [CACACA_negctrl_site223] | 7.89 ± 0.37
43 | TTGTTAATGGTACGAACACACATATAAAGATGCATA [CACACA_site2044] | 8.64 ± 0.54
44 | ATAATTTGTGGACACACACACACACCGACATATATA [CACACA_site8718] | 8.81 ± 0.4

Row | Sequence | gcPBM binding intensity (ln)
45 | TTATATGAATTTTAGATTTATAATACAAGAATATTC [CACACA_negctrl_site70] | 8.01 ± 0.42
46 | ATTTCGAATATTAAGTGTACAATATAAATATATAAA [XGTACX_site6674] | 8.48 ± 0.34
47 | AAAAAAAAAAAAAAAAGTACAAATAAAAAAAAAATA [XGTACX_site4814] | 8.55 ± 0.23
48 | TACGTAGCCACACTAACACACACAAATATGCACAAT [CACACA_site8942] | 8.8 ± 0.36
49 | ATATTATATAATATACGTACATATATTATGCATAAA [XGTACX_site7895] | 8.74 ± 0.39
50 | ATTAAATACATTAACACACACACAAATATGTACATA [CACACA_site7372] | 8.77 ± 0.32
51 | AATAGGAAAGATTTTGCATGTGATATAAGTAATTTT [TGCATGCA_site657] | 8.79 ± 0.28
52 | TTTATATGATACACACGTACATATACACATATACAC [XGTACX_site8123] | 8.9 ± 0.3
53 | TATATATATATTTTTGCACACATTTTTTAAGGTACA [CACACA_site2145] | 9.82 ± 0.11
54 | CATATAATAAATAGATGTACAGACTATATATATATA [XGTACX_site6575] | 9.96 ± 0.39
55 | TATAATATTTATATAACACACATATAGATTTATTTA [CACACA_site6269] | 8.18 ± 0.4
56 | TATATTAAAGGGGTTTCACACACATGTATAATTAAT [CACACA_site7950] | 8.72 ± 0.42
57 | TATTATTTAATCAAATGTACATAGAAAATGTATGTA [XGTACX_site4433] | 8.38 ± 0.33
58 | ATGTAAAATTAATATTGTACTTTTCCATCATGATAC [XGTACX_site2669] | 8.49 ± 0.4
59 | ATAATATAACACAAATGTACAAAAAATAAATAAATA [XGTACX_site385] | 8.76 ± 0.4
60 | AACAAACACAGACACACACACACACCCAAATGATTA [CACACA_site2431] | 8.59 ± 0.52
61 | TATATATATACTTAATGTACATATATATATATATAT [XGTACX_site3102] | 10.3 ± 0.2
62 | CATACTCACCAACACACACACACACCCATATAGAAT [CACACA_site592] | 8.7 ± 0.45
63 | CACAGATAAATTAACACACACACACCCATATATATA [CACACA_site3960] | 8.84 ± 0.18
64 | CTTTTTGAAATATTAACACACATTTTGTTAATTAAT [CACACA_site4046] | 8.33 ± 0.34
65 | CTATTTGGGGGAAGAGTGCATGACATGAATATAAAA | 9.39 ± 0.11
66 | AAAAGGAAGATATATACACACATACAAATATATATA [CACACA_site5236] | 8.78 ± 0.49

Row | Sequence | gcPBM binding intensity (ln)
67 | TTTTTTTTTTTTTTCACACACTAATAATATTATCAT [CACACA_site4417] | 8.53 ± 0.46
68 | ATAAATTTTTAAAAATATGAATTATGTAATTTGTGA [CACACA_negctrl_site1621] | 8.34 ± 0.36
69 | ATTAGTATTAGATGATGTACATTTATATTGAAATAT [XGTACX_site8537] | 8.65 ± 0.38
70 | TTGATGTATACAATGTAGATTATTTAATATTTCAAC [CACACA_negctrl_site73] | 8.21 ± 0.38
71 | CTATATTATAAATATACACACATATCTTAAGTATAA [CACACA_site3096] | 8.27 ± 0.35
72 | GAAAACGTTTGAAGTTGTACATATGTATAAAAAGAA [XGTACX_site2304] | 9.16 ± 0.43
73 | ATAAAAATACAGTTAACACACATGTGTATTTATATG [CACACA_site7727] | 8.82 ± 0.48
74 | ATGGTCTGTTAAAGATGTACTTTTTAAAAATAAACG [XGTACX_site2583] | 8.48 ± 0.25
75 | TGTTATTTAAATAATTCTTTTTAAAAGATGAATTAT [CACACA_negctrl_site1226] | 8.21 ± 0.56
76 | TCTTTCTGCTCTTATACACACAAATAAAGATTTTTT [CACACA_site2700] | 8.93 ± 0.31
77 | TATATATATATATATATATATATATATATATATATT [CACACA_negctrl_site1440] | 10.1 ± 0.52
78 | CATTGACCATTAATTTGTACACAAGGGGAAATGAGG [XGTACX_site1756] | 8.74 ± 0.35
79 | ATGAAATTTTCATATTGTACTATTAAAAATATATTT [XGTACX_site1989] | 8.27 ± 0.27
80 | TAAGGGATATGTATATGTACATACAAATATATATAA [XGTACX_site2892] | 8.62 ± 0.38
81 | TGTAGATTTTGTAACACACACATATAAATACAGATA [CACACA_site5343] | 8.65 ± 0.49
82 | AATTTCATTTTTAGAAGTACATTTATATTAAAAATC [XGTACX_site2888] | 8.25 ± 0.28
83 | AAATGTAATAAATATACACACACAAATATATATATA [CACACA_site8754] | 9.65 ± 0.31
84 | TTTGCTTCGATATATTCACACATTTTTTTTCTTATT [CACACA_site4499] | 8.91 ± 0.42
85 | CATATAATTATTTTCACACATATAACTACATCTATA [CACACA_site5915] | 8.64 ± 0.53
86 | TAGCCAAAAGGATATGCACACACACCCACATATATA [CACACA_site8684] | 8.52 ± 0.39
87 | TAAGATCCTTAAAACGCATGCAGTATTTTTATTTCT [TGCATGCA_site532] | 9.375 ± 0.021
88 | CTTTTACGTTTAGGATGTACATTTAAAAAAAAAGAA [XGTACX_site8032] | 8.71 ± 0.4
